# Results reported in the supplement of paper PMC8728848.
# Some of the results follow.
# B1: Gal 7 (Homo sapiens) (protein)
# chain: MSNVPHKSSLPEGIRPGTVLRIRGLVPPNASRFHVNLLCGEEGGSDAALHFNPRLDTSEVVFNSKEGGSWGREESGPGVPFGRGQPFEVLIIASDDGFKAVVGDAQYHHFRHRLPLARVRLVEVGGDVQLDSVRIF
# Assays:
# Test in all cases: glycan array binding signal (z-score within array); higher = stronger binding
# Details in all cases: glycan notation: IUPAC condensed, linker removed; mutation: R74S
# Gal6S(b1-4)Glc = molecular target: Gal6S(b1-4)Glc
# Summary of the method: (§1)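 Negative Z-scores can be read as non-binding. The Z-score is calculated within each array and then averaged across arrays of one protein sequence at different concentrations or buffers and across linkers. Arrays, 3228 in all, were curated from the Consortium for Functional Glycomics database and kept only where the protein sequence was available.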
# Gal6S(b1-4)Glc6S = molecular target: Gal6S(b1-4)Glc6S
# Summary of the method: as §1
# Gal6S(b1-4)GlcNAc = molecular target: Gal6S(b1-4)GlcNAc
# Summary of the method: as §1
# Gal6S(b1-4)GlcNAc6S = molecular target: Gal6S(b1-4)GlcNAc6S
# Summary of the method: as §1
# GalNAc(a1-3)Gal = molecular target: GalNAc(a1-3)Gal
# Summary of the method: as §1
# GalNAc(a1-3)GalNAc = molecular target: GalNAc(a1-3)GalNAc
# Summary of the method: as §1
# [1] = molecular target: GalNAc(a1-3)GalNAc(b1-3)Gal(a1-4)Gal(b1-4)Glc
# Summary of the method: as §1
# [2] = molecular target: GalNAc(a1-3)GalNAc(b1-3)Gal(a1-4)Gal(b1-4)GlcNAc
# Summary of the method: as §1
# GalNAc(b1-3)Gal = molecular target: GalNAc(b1-3)Gal
# Summary of the method: as §1
# [3] = molecular target: GalNAc(b1-3)Gal(a1-4)Gal(b1-4)GlcNAc
# Summary of the method: as §1
# [4] = molecular target: GalNAc(b1-3)Gal(a1-4)Gal(b1-4)GlcNAc(b1-3)Gal(b1-4)Glc
# Summary of the method: as §1
# [5] = molecular target: GalNAc(b1-3)Gal(a1-6)Gal(b1-4)Glc
# Summary of the method: as §1
# GalNAc(b1-3)GalNAc = molecular target: GalNAc(b1-3)GalNAc
# Summary of the method: as §1
# GalNAc(b1-3)GlcNAc = molecular target: GalNAc(b1-3)GlcNAc
# Summary of the method: as §1
# GalNAc(b1-4)Gal(b1-4)Glc = molecular target: GalNAc(b1-4)Gal(b1-4)Glc
# Summary of the method: as §1
# GalNAc(b1-4)GlcNAc = molecular target: GalNAc(b1-4)GlcNAc
# Summary of the method: as §1
# [6] = molecular target: GalNAc(b1-4)GlcNAc(b1-2)Man
# Summary of the method: as §1
# [7] = molecular target: GalNAc(b1-4)GlcNAc(b1-2)Man(a1-3)[GalNAc(b1-4)GlcNAc(b1-2)Man(a1-6)]Man(b1-4)GlcNAc(b1-4)GlcNAc
# Summary of the method: as §1
# [8] = molecular target: GalNAc(b1-4)GlcNAc(b1-3)GalNAc(b1-4)GlcNAc
# Summary of the method: as §1
# GalNAc(b1-4)GlcNAc6S = molecular target: GalNAc(b1-4)GlcNAc6S
# Summary of the method: as §1
# GalNAc(b1-6)GalNAc = molecular target: GalNAc(b1-6)GalNAc
# Summary of the method: as §1
# GalNAc3S(b1-4)GlcNAc = molecular target: GalNAc3S(b1-4)GlcNAc
# Summary of the method: as §1
# GalNAc3S(b1-4)GlcNAc3S = molecular target: GalNAc3S(b1-4)GlcNAc3S
# Summary of the method: as §1
# [9] = molecular target: GalNAc3S(b1-4)[Fuc(a1-3)]GlcNAc
# Summary of the method: as §1
# GalNAc4S6S(b1-4)GlcNAc = molecular target: GalNAc4S6S(b1-4)GlcNAc
# Summary of the method: as §1
# GalNAc6S(b1-4)GlcNAc = molecular target: GalNAc6S(b1-4)GlcNAc
# Summary of the method: as §1
# Glc(a1-4)Glc = molecular target: Glc(a1-4)Glc
# Summary of the method: as §1
# [10] = molecular target: Glc(a1-4)Glc(a1-4)Glc(a1-4)Glc
# Summary of the method: as §1
# Glc(a1-6)Glc(a1-6)Glc = molecular target: Glc(a1-6)Glc(a1-6)Glc
# Summary of the method: as §1
# [11] = molecular target: Glc(a1-6)Glc(a1-6)Glc(a1-6)Glc
# Summary of the method: as §1
# Glc(b1-4)Glc = molecular target: Glc(b1-4)Glc
# Summary of the method: as §1
# Glc(b1-6)Glc = molecular target: Glc(b1-6)Glc
# Summary of the method: as §1
# GlcA(b1-3)Gal = molecular target: GlcA(b1-3)Gal
# Summary of the method: as §1
# GlcA(b1-3)GlcNAc = molecular target: GlcA(b1-3)GlcNAc
# Summary of the method: as §1
# GlcA(b1-6)Gal = molecular target: GlcA(b1-6)Gal
# Summary of the method: as §1
# [12] = molecular target: GlcA3S(b1-3)Gal(b1-4)GlcNAc(b1-2)Man
# Summary of the method: as §1
# [13] = molecular target: GlcA3S(b1-3)Gal(b1-4)GlcNAc(b1-3)Gal(b1-4)Glc
# Summary of the method: as §1
# [14] = molecular target: GlcNAc(a1-3)Gal(b1-4)GlcNAc
# Summary of the method: as §1
# [15] = molecular target: GlcNAc(a1-4)Gal(b1-3)GlcNAc
# Summary of the method: as §1
# [16] = molecular target: GlcNAc(a1-4)Gal(b1-4)GalNAc
# Summary of the method: as §1
# [17] = molecular target: GlcNAc(a1-4)Gal(b1-4)GlcNAc
# Summary of the method: as §1
# [18] = molecular target: GlcNAc(a1-4)Gal(b1-4)GlcNAc(b1-3)Gal(b1-4)Glc
# Summary of the method: as §1
# [19] = molecular target: GlcNAc(a1-4)Gal(b1-4)GlcNAc(b1-3)Gal(b1-4)GlcNAc
# Summary of the method: as §1
# [20] = molecular target: GlcNAc(a1-4)Gal(b1-4)GlcNAc(b1-3)Gal(b1-4)GlcNAc(b1-3)Gal(b1-4)GlcNAc
# Summary of the method: as §1
# [21] = molecular target: GlcNAc(a1-4)Gal(b1-4)GlcNAc(b1-3)Gal(b1-4)[Fuc(a1-3)]GlcNAc(b1-3)Gal(b1-4)[Fuc(a1-3)]GlcNAc
# Summary of the method: as §1
binder,measurement,setting,value
B1,glycan array binding signal (z-score),Gal6S(b1-4)Glc,-0.266
same,glycan array binding signal (z-score),Gal6S(b1-4)Glc6S,-0.366
same,glycan array binding signal (z-score),Gal6S(b1-4)GlcNAc,-0.612
same,glycan array binding signal (z-score),Gal6S(b1-4)GlcNAc6S,-0.458
same,glycan array binding signal (z-score),GalNAc(a1-3)Gal,-0.131
same,glycan array binding signal (z-score),GalNAc(a1-3)GalNAc,-0.646
same,glycan array binding signal (z-score),[1],-0.602
same,glycan array binding signal (z-score),[2],-0.412
same,glycan array binding signal (z-score),GalNAc(b1-3)Gal,-0.441
same,glycan array binding signal (z-score),[3],0.333
same,glycan array binding signal (z-score),[4],-0.451
same,glycan array binding signal (z-score),[5],-0.396
same,glycan array binding signal (z-score),GalNAc(b1-3)GalNAc,-0.531
same,glycan array binding signal (z-score),GalNAc(b1-3)GlcNAc,-0.28
same,glycan array binding signal (z-score),GalNAc(b1-4)Gal(b1-4)Glc,0.126
same,glycan array binding signal (z-score),GalNAc(b1-4)GlcNAc,0.29
same,glycan array binding signal (z-score),[6],-0.462
same,glycan array binding signal (z-score),[7],0.227
same,glycan array binding signal (z-score),[8],0.573
same,glycan array binding signal (z-score),GalNAc(b1-4)GlcNAc6S,-0.198
same,glycan array binding signal (z-score),GalNAc(b1-6)GalNAc,-0.385
same,glycan array binding signal (z-score),GalNAc3S(b1-4)GlcNAc,-0.421
same,glycan array binding signal (z-score),GalNAc3S(b1-4)GlcNAc3S,-0.604
same,glycan array binding signal (z-score),[9],-0.364
same,glycan array binding signal (z-score),GalNAc4S6S(b1-4)GlcNAc,-0.49
same,glycan array binding signal (z-score),GalNAc6S(b1-4)GlcNAc,-0.472
same,glycan array binding signal (z-score),Glc(a1-4)Glc,0.327
same,glycan array binding signal (z-score),[10],-0.298
same,glycan array binding signal (z-score),Glc(a1-6)Glc(a1-6)Glc,-0.271
same,glycan array binding signal (z-score),[11],0.051
same,glycan array binding signal (z-score),Glc(b1-4)Glc,0.037
same,glycan array binding signal (z-score),Glc(b1-6)Glc,0.081
same,glycan array binding signal (z-score),GlcA(b1-3)Gal,-0.566
same,glycan array binding signal (z-score),GlcA(b1-3)GlcNAc,-0.533
same,glycan array binding signal (z-score),GlcA(b1-6)Gal,-0.495
same,glycan array binding signal (z-score),[12],-0.489
same,glycan array binding signal (z-score),[13],-0.404
same,glycan array binding signal (z-score),[14],-0.402
same,glycan array binding signal (z-score),[15],-0.326
same,glycan array binding signal (z-score),[16],-0.587
same,glycan array binding signal (z-score),[17],-0.246
same,glycan array binding signal (z-score),[18],-0.682
same,glycan array binding signal (z-score),[19],-0.406
same,glycan array binding signal (z-score),[20],-0.457
same,glycan array binding signal (z-score),[21],0.884
